PubChem BioAssay AID624418 (National Center for Advancing Translational Sciences (NCATS), 2012)
Out of some 410,000 compounds screened, about 530 (0.13%) were called active. Inconclusive results, whose numbers are uncertain, are shown with a selection of clear calls. The call rests on the fitted dose curve; in most records, active means well fitted inhibition curve with a large enough effect; inconclusive means small, poorly fitted or top-dose-only effect, or another doubt; inactive means no such curve, though single readings can be large or run the other way. Potencies beside an inconclusive call are fits to weak or partial responses and may not hold up.
On the % scale 0 is the no-effect control and ±100 the full control effect; potency means the concentration at half of the fitted maximal effect.

Assay: qHTS of GLP-1 Receptor Inverse Agonists: Cytotox Screen
Settings: HEK293 cAMP-luciferase reporter cells, luminescence, 24 h; activity change, negative = inhibition: at 38.3 µM (top of the series) unless noted
How it was run: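 Luminescence readout: signal drop marks cytotoxicity. Plated cells grew 12 h at 37 °C, 5% CO2, received 23 nL compound for 24 h, then got luciferase reagent, read after 12 min at RT.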
For `CCCCN1CCc2c(c3ccccc3n2Cc2ccccc2)C1`, the Potency was inconclusive: 28.2 µM [inhibitor, single point].
In the case of `Cc1cccc(NC(=O)c2cc3c(=O)n4ccccc4nc3n2C)c1C`, the “activity change, negative = inhibition” value was inactive: -5.96%.
For `COc1ccc(-c2ccc(C(=O)NCc3ccc(N4CCN(C)CC4)cc3)c3occc23)c(C)c1`, the Potency was inconclusive: 28.2 µM [inhibitor, single point].
For `O=[N+]([O-])c1cccc(-c2ccc(/C=N/NC(=S)NCc3ccco3)o2)c1`, the Potency was inconclusive: 2 µM [inhibitor, partial curve, poor fit].
For `Cc1ccc(OCC(=O)Nc2sc3c(c2C(N)=O)CCCC3)c(C(C)(C)C)c1`, the “activity change, negative = inhibition” value was inactive: 16.8%.
For `COc1ccccc1CNc1nc(NCc2ccccc2SC)c2sccc2n1`, the “activity change, negative = inhibition” value was inactive: -26%.
With `COc1ccc(CC(C)NCC(O)c2ccc(O)c(NC=O)c2)cc1` (configuration not stated) the Potency was “inactive”.
For `O=C1COc2ccc(OCc3ccc(F)cc3)cc21`, the “activity change, negative = inhibition” value was inactive: -8.77%.
With `C=CCn1c(O)c(N=NC(=S)Nc2ccccc2F)c2cc(S(=O)(=O)N3CCOCC3)ccc21` the Potency was inconclusive: 0.891 µM [inhibitor, full curve, poor fit].
With `Cc1ccc(C(=O)Nc2ccc(Br)cc2)cc1S(=O)(=O)NCc1ccccc1` the Potency was inconclusive: 28.2 µM [inhibitor, single point].
With `Cc1cccn2c(=O)c3cc(C(=O)NCCCN4CCCC4=O)n(C)c3nc12` the “activity change, negative = inhibition” value was inactive: 77.8%.
With `CCOc1cc(/C=N/N=C(N)N)ccc1OCc1ccc(Cl)cc1` the Potency was inconclusive: 28.2 µM [inhibitor, single point].
In the case of `Cc1ccc(S(=O)(=O)C(CNC(=O)Cc2ccc(Cl)cc2)c2cccs2)cc1` (configuration not stated), the “activity change, negative = inhibition” value was inactive: 16.3%.
In the case of `CCOc1cccc(/C=N/NC(=S)NCCN2CCOCC2)c1O`, the Potency was inconclusive: 1.12 µM [inhibitor, full curve, poor fit].
For `O=C(CSc1nc2ccccc2n1CCc1ccccc1)c1ccc(O)c(O)c1`, the Potency was inconclusive: 12.6 µM [inhibitor, single point].
For `CC1=CC(C)(C)N2C(=O)C3(C(C#N)=C(N)Oc4cc(C)oc(=O)c43)c3cc(C)cc1c32` (configuration not stated), the Potency was inconclusive: 35.5 µM [inhibitor, partial curve, poor fit].
In the case of `COC(=O)c1ccc(C)c(NS(=O)(=O)c2ccc3c(c2)OCCO3)c1`, the Potency was inconclusive: 0.794 µM [inhibitor, full curve, poor fit].
For `CCN(CC)S(=O)(=O)c1ccc(N/N=C/c2ccccc2OCC(=O)O)c([N+](=O)[O-])c1`, the Potency was inconclusive: 10 µM [inhibitor, partial curve].
For `Cc1ccc(C)c(N2CCN(C(=O)CC3Sc4ccccc4NC3=O)CC2)c1` (configuration not stated), the Potency was inconclusive: 11.2 µM [inhibitor, partial curve, poor fit].
In the case of `O=C(NC(=S)Nc1ccc(CN2CCOCC2)cc1)c1cccc(F)c1`, the Potency was inconclusive: 28.2 µM [inhibitor, single point].
In the case of `Cc1ccc2c(=O)cc(C(=O)Nc3c(C(=O)Nc4cccc(Cl)c4)oc4ccccc34)oc2c1`, the “activity change, negative = inhibition” value was inactive: 12.3%.
With `COc1ccc2c(c1OC)C(=O)N1c3ccccc3C(=O)N(c3ccccc3)C21` (configuration not stated) the Potency was inconclusive: 7.08 µM [inhibitor, partial curve, poor fit].
For `Cc1ccc(CNC(=S)Nc2ccc(OC(F)F)cc2C)cc1`, the Potency was inconclusive: 28.2 µM [inhibitor, single point].
For `CCCn1nc([N+](=O)[O-])c(C(C#N)c2nc3ccccc3s2)c(Cl)c1=O` (configuration not stated), the Potency was inconclusive: 3.55 µM [inhibitor, partial curve, poor fit].
For `COc1ccc(/C=N/NC(=S)NCCc2ccccc2)cc1`, the Potency was inconclusive: 12.6 µM [inhibitor, single point].
With `CC(C)(C)c1ccc(CCC2OCC(C[N+]3(C)CCOCC3)O2)cc1` (configuration not stated) the Potency was inconclusive: 11.2 µM [inhibitor, single point].
In the case of `O=C(CN1CCC(NC(=O)Nc2ccccc2)CC1)Nc1cccc([N+](=O)[O-])c1`, the Potency was inconclusive: 28.2 µM [inhibitor, single point].
With `N#CC(OC(=O)c1ccccc1)c1ccccc1` (configuration not stated) the “activity change, negative = inhibition” value was inactive: 14.1%.
In the case of `COc1cccc(CNC(=O)c2cccs2)c1`, the Potency was inconclusive: 0.501 µM [inhibitor, full curve, poor fit].
With `Cc1cccc(NS(=O)(=O)c2ccc(C(=O)NCC3(N4CCCCC4)CCCCC3)cc2)c1C` the Potency was inconclusive: 22.4 µM [inhibitor, single point].
In the case of `Cc1ccc2nc(COc3ccccc3NC(=O)COc3ccccc3Cl)cc(=O)n2c1`, the “activity change, negative = inhibition” value was inactive: 2.94%.
With `COC1=CC(=O)OC(c2ccc(C(F)(F)F)cc2)C1` (configuration not stated) the “activity change, negative = inhibition” value was inactive: 0.438%.
For `COc1cc(/C=N/NC(=S)NCCc2ccccc2)cc(OC)c1OC`, the Potency was inconclusive: 12.6 µM [inhibitor, single point].
In the case of `Cc1cc(C)nc(SCC(=O)Nc2ccnc3ccccc23)n1`, the “activity change, negative = inhibition” value was inactive: 13.3%.
For `COc1ccc2[nH]c(C)c(CCN(Cc3cccs3)C(=S)Nc3cccc(F)c3)c2c1`, the Potency was inconclusive: 35.5 µM [inhibitor, partial curve, poor fit].
With `CCN(CC)CCn1c(-c2ccccc2)csc1=Nc1ccccc1` the Potency was inconclusive: 31.6 µM [inhibitor, single point].
In the case of `COc1cc(S(=O)(=O)Nc2ccc(C)cc2)ccc1N=Cc1c(C)[nH]n(-c2ccccc2)c1=O`, the Potency was inconclusive: 15.8 µM [inhibitor, single point].
In the case of `CCCCC1(CC)SCC(=O)NC1=O` (configuration not stated), the “activity change, negative = inhibition” value was inactive: -3.05%.
In the case of `O=C(Nc1ccc(Cl)c(S(=O)(=O)N2CCOCC2)c1)c1ccc(Cl)nc1`, the Potency was inconclusive: 14.1 µM [inhibitor, single point].
In the case of `Cc1cccc(N=C2NC(=O)/C(=C/C=C/c3ccco3)S2)c1C`, the Potency was inconclusive: 14.1 µM [inhibitor, single point].
With `CN(C)CCOc1ccc2c(c1)C(=O)C(=Cc1ncc([N+](=O)[O-])n1C)C2` the Potency was inconclusive: 2.82 µM [inhibitor, full curve].
In the case of `CCCCN(CC)CCCNC(=O)C1CCCN(c2ncnc3c2nc2n3CCCCC2)C1` (configuration not stated), the “activity change, negative = inhibition” value was inactive: -3.03%.
For `Cc1ccc2cccc(SCC(=O)NCc3ccco3)c2n1`, the “activity change, negative = inhibition” value was inactive: 0.369%.
In the case of `N#C/C(=C\c1ccc(-c2ccccc2)o1)C(=O)Nn1cnnc1`, the Potency was inconclusive: 8.91 µM [inhibitor, partial curve].
With `COc1cc(/C=N/NC(=O)c2ccc(CN(C)S(=O)(=O)c3ccc(C)cc3)cc2)ccc1O` the Potency was inconclusive: 28.2 µM [inhibitor, single point].
In the case of `CC1Cc2cc(S(=O)(=O)CCC(=O)NCc3ccc(Cl)cc3)ccc2N1C(=O)C1CC1` (configuration not stated), the Potency was inconclusive: 8.91 µM [inhibitor, partial curve, poor fit].
In the case of `COc1ccc(OC)c(CCNC(=O)CCc2cn(Cc3cc(C)ccc3C)c3ccccc23)c1`, the “activity change, negative = inhibition” value was inactive: -5.43%.
In the case of `O=C(Cn1c(=O)c2cccn2c2ccc(F)cc21)N1CCN(c2ccccc2F)CC1`, the “activity change, negative = inhibition” value was inactive: -2.09%.
In the case of `Cc1cc(C(C)(C)C)oc1C(=O)NCCCNC(=O)c1oc(C(C)(C)C)cc1C`, the “activity change, negative = inhibition” value was inactive: -4.89%.
With `COc1ccc(-c2cn(-c3ccc(Cl)cc3)c3[n+]2CCCCC3)cc1` the Potency was inconclusive: 28.2 µM [inhibitor, single point].
For `CCOC(=O)C1(Cc2cccc(Cl)c2)CCCN(C(=O)c2cnn(CC)c2)C1` (configuration not stated), the “activity change, negative = inhibition” value was inactive: -2.89%.
With `CNc1nc(OCC#N)nc(N2CCCCC2)n1` the Potency was inconclusive: 0.891 µM [inhibitor, full curve, poor fit].
In the case of `CCc1ccc(CN2CCC(Oc3ccc(C(=O)N4CCCC4)cc3)CC2)cc1`, the Potency was inconclusive: 14.1 µM [inhibitor, single point].
For `COc1cccc(OC)c1OCCN1CCN(C(c2ccccc2)c2ccccc2)CC1`, the Potency was inconclusive: 28.2 µM [inhibitor, single point].
With `COc1ccc(-c2cn3nc(N4CCCC(C(=O)Nc5cc(C)ccc5C)C4)sc3n2)cc1` (configuration not stated) the “activity change, negative = inhibition” value was inactive: -0.255%.
For `CC(=O)c1c(C)[nH]c(C(=O)N2CCN(c3cc(Cl)ccc3C)CC2)c1C`, the Potency was inconclusive: 2.24 µM [inhibitor, full curve, poor fit].
With `CC(=O)N1c2ccccc2C(=O)OC1c1cccnc1` (configuration not stated) the “activity change, negative = inhibition” value was inactive: -0.733%.
For `COc1ccc(NC(=O)c2ccc(S(=O)(=O)N3CCOCC3)o2)cc1`, the “activity change, negative = inhibition” value was inactive: -0.493%.
For `Oc1ccccc1C=NNC(=S)NC1CC2C=CC1C2` (configuration not stated), the Potency was inconclusive: 0.794 µM [inhibitor, full curve, poor fit].
For `c1ccc(CN2CCN(c3nc4ccccc4n4cnnc34)CC2)cc1`, the Potency was inconclusive: 10 µM [inhibitor, partial curve, poor fit].
For `COc1cccc(CC2(CO)CCCN(Cc3[nH]c4ccc(C)cc4c3C)C2)c1` (configuration not stated), the Potency was inconclusive: 22.4 µM [inhibitor, single point].
In the case of `OCCN(CCO)c1ccc(C(c2ccccc2Cl)c2ccc(N(CCO)CCO)cc2Cl)c(Cl)c1`, the Potency was inconclusive: 11.2 µM [inhibitor, partial curve, poor fit].
With `COCCCNC(=O)Cc1c(C)c2cc3c(cc2oc1=O)OC(C)(C)CC3` the Potency was inconclusive: 20 µM [inhibitor, single point].
With `Cc1ccc(COCCN2CCN(S(=O)(=O)c3ccc(C)cc3)CCC2=O)cc1` the Potency was inconclusive: 0.501 µM [inhibitor, full curve, poor fit].
In the case of `Cc1ccc(NC(=S)/N=C(\N)Nc2nc(C)c3cc(C)ccc3n2)c(C)c1`, the Potency was inconclusive: 14.1 µM [inhibitor, single point].
For `CCC12CN(C(=O)c3ccc(C)cc3)CC(CC)(CN(C(=O)c3ccc(C)cc3)C1)C2=O`, the Potency was inconclusive: 10 µM [inhibitor, partial curve, poor fit].
With `CCc1cc(Br)ccc1NC(=S)NCCc1ccccc1` the Potency was inconclusive: 11.2 µM [inhibitor, single point].
